Experimental data as given in patent US10299477B2 (priority 2015, dated 2019).

Experiments:
Magnaporthe grisea = assay type: in vivo; settings: rice blast, Magnaporthe grisea; 250 ppm spray
Phytophthora infestans = assay type: in vivo; settings: late blight on tomato, Phytophthora infestans; 250 ppm spray, 5-10 days after inoculation

Structure (SMILES)	Test A (control value class) (Magnaporthe grisea)	Test F (control value class) (Phytophthora infestans)
CCn1c(-c2c(F)cc(OC)cc2F)c(-c2cc(F)ccc2F)cc(Cl)c1=O [Compound 469]	H (H shows more than 50% of control values)	L (L shows 50% or less of control values)
CCn1c(-c2c(F)cccc2F)c(-c2cc(Cl)ccc2Cl)cc(C)c1=O [Compound 470]	H (H shows more than 50% of control values)	L (L shows 50% or less of control values)
Cc1cc(-c2cc(Cl)ccc2Cl)c(-c2c(F)cccc2F)n(C)c1=O [Compound 471]	H (H shows more than 50% of control values)	L (L shows 50% or less of control values)
CCn1c(-c2c(F)cccc2F)c(-c2cccc(Cl)c2F)ccc1=O [Compound 472]	H (H shows more than 50% of control values)	L (L shows 50% or less of control values)
CCn1c(-c2c(F)cccc2F)c(-c2cccc(Cl)c2F)cc(Cl)c1=O [Compound 473]	H (H shows more than 50% of control values)	L (L shows 50% or less of control values)
Cn1c(-c2c(F)cccc2F)c(-c2cccc(Cl)c2F)ccc1=O [Compound 474]	H (H shows more than 50% of control values)	L (L shows 50% or less of control values)
Cn1c(-c2c(F)cccc2F)c(-c2cccc(Cl)c2F)cc(Cl)c1=O [Compound 475]	H (H shows more than 50% of control values)	L (L shows 50% or less of control values)
CCn1c(-c2c(F)cc(OC)cc2F)c(-c2cc(F)ccc2Cl)cc(Br)c1=O [Compound 476, 3-bromo-5-(2-chloro-5-fluorophenyl)-6-(2,6-difluoro-4-methoxyphenyl)-1-ethylpyridine-2(1H)-one]	H (H shows more than 50% of control values)	L (L shows 50% or less of control values)
CCN1C(=O)CCC(c2cc(F)ccc2F)=C1c1c(F)cccc1F [Compound 477]	H (H shows more than 50% of control values)	H (H shows more than 50% of control values)
CCn1c(-c2c(F)cccc2F)c(-c2cc(F)ccc2F)ccc1=O [Compound 478]	H (H shows more than 50% of control values)	H (H shows more than 50% of control values)
CCn1c(-c2c(F)cc(OC)cc2F)c(-c2cc(F)ccc2Cl)cc(C)c1=O [Compound 479]	H (H shows more than 50% of control values)	L (L shows 50% or less of control values)
CN1C(=O)CCC(c2cc(F)ccc2F)=C1c1c(F)cccc1F [Compound 480]	H (H shows more than 50% of control values)	L (L shows 50% or less of control values)
CCn1c(-c2c(F)cccc2F)c(-c2cc(F)ccc2F)cc(Cl)c1=O [Compound 481]	H (H shows more than 50% of control values)	L (L shows 50% or less of control values)
CCn1c(-c2c(F)cccc2F)c(-c2cc(F)ccc2F)cc(Br)c1=O [Compound 482]	H (H shows more than 50% of control values)	L (L shows 50% or less of control values)
Cn1c(-c2c(F)cccc2F)c(-c2cc(F)ccc2F)ccc1=O [Compound 483]	H (H shows more than 50% of control values)	H (H shows more than 50% of control values)
Cn1c(-c2c(F)cccc2F)c(-c2cc(F)ccc2F)cc(Cl)c1=O [Compound 484]	H (H shows more than 50% of control values)	L (L shows 50% or less of control values)
Cn1c(-c2c(F)cccc2F)c(-c2cc(F)ccc2F)cc(Br)c1=O [Compound 485]	H (H shows more than 50% of control values)	H (H shows more than 50% of control values)
CCn1c(-c2c(F)cc(F)cc2F)c(-c2cccc(F)c2Cl)ccc1=O [Compound 486]	H (H shows more than 50% of control values)	H (H shows more than 50% of control values)
CCn1c(-c2c(F)cc(F)cc2F)c(-c2cccc(F)c2Cl)cc(Br)c1=O [Compound 487]	H (H shows more than 50% of control values)	L (L shows 50% or less of control values)
CCn1c(-c2c(F)cc(F)cc2F)c(-c2cccc(F)c2Cl)cc(Cl)c1=O [Compound 488]	H (H shows more than 50% of control values)	L (L shows 50% or less of control values)
CCn1c(-c2c(F)cc(OC)cc2F)c(-c2cccc(F)c2Cl)ccc1=O [Compound 489]	H (H shows more than 50% of control values)	H (H shows more than 50% of control values)
CCn1c(-c2c(F)cc(OC)cc2F)c(-c2cccc(F)c2Cl)cc(Cl)c1=O [Compound 490]	H (H shows more than 50% of control values)	L (L shows 50% or less of control values)

Structure (SMILES)	Test A (control value class) (Magnaporthe grisea)	Test F (control value class) (Phytophthora infestans)
Cn1c(-c2c(F)cc(F)cc2F)c(-c2cccc(F)c2Cl)ccc1=O [Compound 491]	H (H shows more than 50% of control values)	L (L shows 50% or less of control values)
COc1cc(F)c(-c2c(-c3cccc(F)c3Cl)ccc(=O)n2C)c(F)c1 [Compound 492]	H (H shows more than 50% of control values)	L (L shows 50% or less of control values)
CCn1c(-c2c(F)cccc2F)c(-c2cccc(Cl)c2F)cc(C)c1=O [Compound 493]	H (H shows more than 50% of control values)	L (L shows 50% or less of control values)
O=c1ccc(-c2cccc(Cl)c2F)c(-c2c(F)cccc2F)n1CC(F)F [Compound 494]	H (H shows more than 50% of control values)	L (L shows 50% or less of control values)
O=c1c(Cl)cc(-c2cccc(Cl)c2F)c(-c2c(F)cccc2F)n1CC(F)F [Compound 495]	H (H shows more than 50% of control values)	L (L shows 50% or less of control values)
COc1ccc(Cl)c(-c2ccc(=O)n(C3CC3)c2-c2c(F)cccc2F)c1 [Compound 496]	H (H shows more than 50% of control values)	L (L shows 50% or less of control values)
CCn1c(-c2c(F)cccc2F)c(-c2cc(F)ccc2F)cc(C)c1=O [Compound 497]	H (H shows more than 50% of control values)	L (L shows 50% or less of control values)
COc1ccc(Cl)c(-c2cc(Cl)c(=O)n(C3CC3)c2-c2c(F)cccc2F)c1 [Compound 498]	H (H shows more than 50% of control values)	L (L shows 50% or less of control values)
Cc1cc(-c2cc(F)ccc2F)c(-c2c(F)cccc2F)n(C)c1=O [Compound 499]	H (H shows more than 50% of control values)	L (L shows 50% or less of control values)
Cn1c(-c2c(F)cc(F)cc2F)c(-c2cccc(F)c2Cl)cc(Cl)c1=O [Compound 500]	H (H shows more than 50% of control values)	L (L shows 50% or less of control values)
CCn1c(-c2c(F)cc(F)cc2F)c(-c2cccc(F)c2Cl)cc(C)c1=O [Compound 501]	H (H shows more than 50% of control values)	H (H shows more than 50% of control values)
Cn1c(-c2c(F)cc(F)cc2F)c(-c2cccc(F)c2Cl)cc(Br)c1=O [Compound 503]	H (H shows more than 50% of control values)	L (L shows 50% or less of control values)
COc1cc(F)c(-c2c(-c3cccc(F)c3Cl)cc(Cl)c(=O)n2C)c(F)c1 [Compound 504]	H (H shows more than 50% of control values)	L (L shows 50% or less of control values)
Cc1cc(-c2cccc(F)c2Cl)c(-c2c(F)cc(F)cc2F)n(C)c1=O [Compound 505]	H (H shows more than 50% of control values)	L (L shows 50% or less of control values)
CCn1c(-c2c(F)cccc2F)c(-c2cccc(F)c2Cl)ccc1=O [Compound 506]	H (H shows more than 50% of control values)	L (L shows 50% or less of control values)
CCn1c(-c2c(F)cccc2F)c(-c2cccc(F)c2Cl)cc(Cl)c1=O [Compound 507]	H (H shows more than 50% of control values)	L (L shows 50% or less of control values)
Cn1c(-c2c(F)cccc2F)c(-c2cccc(F)c2Cl)ccc1=O [Compound 508]	H (H shows more than 50% of control values)	H (H shows more than 50% of control values)
Cn1c(-c2c(F)cccc2F)c(-c2cccc(F)c2Cl)cc(Cl)c1=O [Compound 509]	H (H shows more than 50% of control values)	L (L shows 50% or less of control values)
O=c1ccc(-c2cccc(F)c2Cl)c(-c2c(F)cccc2F)n1CC(F)F [Compound 510]	H (H shows more than 50% of control values)	L (L shows 50% or less of control values)
O=c1c(Cl)cc(-c2cccc(F)c2Cl)c(-c2c(F)cccc2F)n1CC(F)F [Compound 511]	H (H shows more than 50% of control values)	L (L shows 50% or less of control values)
CCn1c(-c2c(F)cccc2F)c(-c2cc(F)ccc2Cl)cc(F)c1=O [Compound 512]	H (H shows more than 50% of control values)	L (L shows 50% or less of control values)
